Test results as given in the supplement of paper PMC3334620.
The full ranking holds about 33,000 sequences; the median of “E-score (-0.5 to 0.5)” is about -0.054, and the highest 2% start at about 0.39. This is one part of the list.

biological target: Ylr278c (UniProt Q05854); assay: PBM E-score (8-mer binding enrichment) (E-score (-0.5 to 0.5)); higher = stronger / more preferred TF binding; most listed sequences are background and not binding sites; conditions: protein concentration: 200 nM; construct: GST-DNA-binding domain
Summary of the method: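 GST-tagged yeast TFs (full-length or DNA-binding domain) were made by PURExpress in vitro transcription/translation and applied at about 100-200 nM to universal all-10-mer Agilent arrays. The arrays were made double-stranded by primer extension, on fresh or once-stripped slides. Bound protein was detected with fluorescent anti-GST, and scans were normalised with masliner. Each ungapped eight-base word, pooled with its reverse complement, received an E-score (modified Wilcoxon-Mann-Whitney statistic) from the Universal PBM Analysis Suite.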

| Sequence | PBM E-score |
| --- | --- |
| CGTTACCA | -0.241 |
| CCGTACCA | 0.247 |
| GGCAGGAC | -0.00715 |
| GCCTCCCA | -0.0948 |
| GAACGACA | -0.173 |
| CACTGTAC | -0.378 |
| CATAATGC | 0.0347 |
| ACGTTGCT | -0.241 |
| GATTTACA | 0.0958 |
| AGTTTTTG | -0.0312 |
| GCACCGAC | 0.303 |
| CACTACGA | -0.133 |
| GAAGCTGA | 0.011 |
| GGATTAGA | 0.00896 |
| AGATAACG | 0.239 |
| GGTAATTA | 0.211 |
| GACATGAC | -0.15 |
| CCGAATTC | 0.323 |
| AAGCTCTA | -0.224 |
| ATCACGGG | 0.0633 |
| CGACGGCA | 0.113 |
| GGAAGTAA | 0.21 |
| CGCTGGAA | 0.12 |
| ACCATGTC | -0.0165 |
| CGGTTTTA | 0.229 |

| Sequence | PBM E-score |
| --- | --- |
| CATTCCCC | 0.268 |
| GCGTGACA | -0.135 |
| CTGCTATA | 0.015 |
| CCTAAGCA | -0.0992 |
| GAAATGCA | 0.0435 |
| GCGCTGCC | -0.103 |
| CAATCGAG | -0.153 |
| TCTGCTCA | -0.298 |
| CAAAAGGG | -0.25 |
| GAAAAGAC | 0.066 |
| CGCCTTAC | -0.152 |
| CTAAGACA | -0.199 |
| GACAAATC | 0.011 |
| GAAAAAAA | 0.108 |
| CCGGTTTC | 0.345 |
| AGGCCCTG | -0.276 |
| AGCAGTCC | -0.0654 |
| CGCGCTGA | 0.0743 |
| GACATTCA | 0.177 |
| ATAGATAC | -0.138 |
| GTACACGA | -0.0442 |
| CCGTATGA | 0.165 |
| TTACTGAA | -0.0744 |
| AGTGCGTG | -0.0867 |
| GACCGAAC | 0.122 |

| Sequence | PBM E-score |
| --- | --- |
| ATGAGACA | -0.0671 |
| GCATCGCC | 0.0511 |
| GGCAAAGA | 0.147 |
| ACACGTCG | 0.0356 |
| GAGTGGCC | 0.108 |
| AATGGTTC | -0.108 |
| AAGGTTAT | -0.0625 |
| AACCGAGT | -0.0766 |
| CAAAGCTG | -0.0969 |
| CCTGCGTA | -0.145 |
| AACTGTTA | -0.15 |
| CAATAAGC | 0.11 |
| AGTAGTAC | -0.0265 |
| ATATGAGC | -0.125 |
| GGCATACC | -0.0283 |
| TAACCCAA | -0.137 |
| CGTCGAGC | -0.0842 |
| TCATGGCA | -0.145 |
| CCCAATTC | 0.00722 |
| AGTAAGGA | -0.072 |
| GGCAGGGA | -0.197 |
| ACGCGACC | -0.107 |
| CAATCGCG | 0.0497 |
| GTGACTTA | -0.115 |
| ACGCCTGA | -0.127 |

| Sequence | PBM E-score |
| --- | --- |
| CATTTGGC | -0.0986 |
| AAGGTAAG | -0.136 |
| TATGCGCA | -0.0947 |
| ATGACTTC | -0.0415 |
| CGCAAGCC | 0.0749 |
| ACTTTCCT | -0.146 |
| GACGGCAA | 0.142 |
| TCGATTCA | -0.103 |
| CCTCATCA | -0.177 |
| GTTACAGA | -0.131 |
| ATCTCTCG | 0.0392 |
| CCCACGCC | -0.193 |
| ATACGAAT | -0.24 |
| GGGAATTA | 0.143 |
| GACGCCTC | -0.121 |
| CACTCTAA | -0.127 |
| ACCGTTAC | -0.124 |
| GCAGTTAC | 0.0318 |
| CATTATAG | -0.0427 |
| GTAAAGAA | -0.0759 |
| CGAATGAC | 0.167 |
| CGTAGCTC | 0.0772 |
| AAGAAGGC | -0.0911 |
| CATTTAAG | -0.159 |
| CACTACTA | -0.0402 |

| Sequence | PBM E-score |
| --- | --- |
| AAAGGCAA | -0.121 |
| ATTCGCAA | -0.0414 |
| CACCCATG | -0.103 |
| GGGGTCTA | 0.142 |
| GTATCCCA | -0.139 |
| GCATAGCA | -0.229 |
| AAGTTTAT | 0.139 |
| AGGTGCAC | 0.0215 |
| GACCTTGC | -0.212 |
| ACAGAAAA | 0.00544 |
| AGATCATA | -0.0376 |
| CCGCAAGA | 0.249 |
| AATATAGA | -0.109 |
| AAACTCCT | 0.23 |
| AGCATCGG | 0.311 |
| GGTTTCCA | -0.153 |
| CGTTAGCA | -0.0483 |
| GACGAAAA | 0.113 |
| AGTTAGTA | -0.0364 |
| ACTGCTAC | -0.184 |
| AGCCGGCT | 0.247 |
| AGGATCTG | -0.301 |
| CTTAGCCC | -0.0135 |
| GTTGTTAA | 0.0758 |
| CTTAGCAC | 0.19 |

| Sequence | PBM E-score |
| --- | --- |
| GCTATAAA | -0.0727 |
| CGTTCGTA | 0.0114 |
| ACGTACCG | -0.0502 |
| GAATGATC | -0.0676 |
| AGGTACCT | -0.183 |
| CCTGAATC | -0.0576 |
| TATGGAGA | -0.115 |
| GCTAAGAA | -0.0627 |
| ACCATACA | -0.203 |
| CGTAAGAG | -0.0166 |
| CAATATGG | -0.183 |
| AACCTACG | -0.107 |
| GTTTTGGA | -0.101 |
| CTCGACAA | -0.169 |
| ACCCGTGG | -0.117 |
| ATCGATAA | -0.0278 |
| CAGAGCCA | -0.311 |
| ATCCTTAC | -0.0586 |
| ATAGATGA | -0.158 |
| CGGGCAAA | 0.247 |
| AGGCTTTA | -0.102 |
| ACACGGAA | 0.288 |
| AAAAGTAC | 0.0462 |
| GGTTAGTA | 0.0313 |
| ATGTTACA | -0.164 |

| Sequence | PBM E-score |
| --- | --- |
| CCAGATTA | -0.0961 |
| ACTAGTTC | -0.146 |
| ACCCCTTG | -0.292 |
| ATATACAG | -0.0931 |
| GCGAACGC | 0.0827 |
| CAGCTTGC | -0.075 |
| CACTGTTC | -0.143 |
| TAAGTTCA | -0.145 |
| CTAGCAGC | -0.221 |
| GCATCGTA | -0.0408 |
| AGTTCGGG | 0.281 |
| GCAGTCTA | -0.192 |
| ATCTGCAG | -0.0189 |
| GCAGCTAA | -0.195 |
| GAAATTAC | 0.109 |
| CGCAGTAA | 0.0396 |
| CGCGACCG | 0.172 |
| GAGAGCGC | 0.153 |
| TCGACTCA | -0.106 |
| CAAGCCGG | 0.263 |
| ACGCCTAT | -0.0906 |
| AAGCTTTC | 0.0366 |
